PubChem BioAssay AID651820 (National Center for Advancing Translational Sciences (NCATS), 2012)
“And” between values parts separate entries of the source, which are not always exact repeats. Equal entries are not always repeated. The campaign covered roughly 340,000 compounds. About 12,000 (3.5%) were called active. The inconclusive results got no clear call from the source; some entries with a clear call stand among them for comparison. Calls follow the shape of the dose curve; as a rule, active = well fitted inhibition curve with a large enough effect; inconclusive = small, poorly fitted or top-dose-only effect, or another doubt; inactive = no such curve, though single readings can be large or run the other way. A potency beside an inconclusive call is a rough fit, not a confirmed value.
Potency is read from the fitted curve at half-maximal effect; tags tell the direction and shape of the fitted curve.

Assay: qHTS Assay for Inhibitors of Hepatitis C Virus (HCV)
Settings: Huh7.5.1 HCVcc-Cre (HCVcc is cell-culture hepatitis C virus) infection, luciferase reporter, 44 h; series mostly up to 41.8 µM
In short: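 A cell-based infection assay in which seeded cells (1,000 per well) receive test compound after 4 h, are inoculated with HCVcc-Cre at approximately 0.5 moi, and are incubated 44 h before luminescence detection.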
For `CCN(CC)CCOCCn1c(C)ccc1C`, the Potency was “inactive”. With `COc1cccc(C2CC(c3ccc(C)cc3)=NN2C(=O)c2ccccc2F)c1OC` (stereo unspecified) the Potency was inconclusive: 14.1 µM [inhibitor, single point]. With `Cc1ccc(C)c(NC(=O)c2ccccc2NS(=O)(=O)c2cc([N+](=O)[O-])ccc2C)c1` the Potency was active: 8.91 µM. With `COc1ccc(NC(=O)CN(C)CC(=O)Nc2cccc(S(=O)(=O)N(C)c3ccccc3)c2)cc1` the Potency was inconclusive: 31.6 µM [inhibitor, single point]. In the case of `NS(=O)(=O)c1ccc(NC(=O)CN2C(=O)C3C4C=CC(C4)C3C2=O)cc1` (stereo unspecified), the Potency was inconclusive: 3.16 µM [inhibitor, single point]. With `CCCn1c(CCNC(=O)c2ccco2)nc2ccccc21` the Potency was inconclusive: 31.6 µM [inhibitor, single point]. In the case of `CC(=O)Nc1ccc(C(=O)Nc2cc(C)on2)cc1`, the Potency was “inactive”. For `CCCCn1c(N)c(N(CC)C(=O)C2CCC2)c(=O)[nH]c1=O`, the Potency was “inactive”. For `COc1cc(CNc2ccc(O)cc2)cc(Br)c1OCc1ccccc1`, the Potency was inconclusive: 22.4 µM [inhibitor, single point]. For `c1ccc(CC2CCN(C3=Nc4cccc5cccc3c45)CC2)cc1`, the Potency was active: 11.2 µM. For `Cc1ccc(N2CCN(C(=O)c3cc(C(=O)c4ccccc4C)c[nH]3)CC2)c(C)c1`, the Potency was active: 11.2 µM. In the case of `COc1cccc2sc(N(CCCN(C)C)C(=O)c3ccc(S(=O)(=O)N4CCc5ccccc5C4)cc3)nc12`, the Potency was inconclusive: 22.4 µM [inhibitor, single point]. For `COc1cc(NC(=O)Cn2nc(-c3ccc(F)cc3)ccc2=O)ccc1-n1cnnn1`, the Potency was inconclusive: 31.6 µM [inhibitor, single point]. In the case of `O=C(C[n+]1ccc(-c2ccccc2)cc1)Nc1ccc([N+](=O)[O-])cc1`, the Potency was “inactive”. In the case of `CCCCn1nc2cc(C(=O)NCc3ccc(OC(F)(F)F)cc3)ccc2c1OC`, the Potency was inconclusive: 14.1 µM [inhibitor, partial curve]. With `Cc1ccc(S(=O)(=O)N2CCCCC2)cc1NC(=O)COC(=O)Cc1cccc2ccccc12` the Potency was inconclusive: 10 µM [inhibitor, single point]. With `COc1cccc(C(c2nnnn2CCc2ccccc2)N2CCN(c3ccccc3)CC2)c1OC` (stereo unspecified) the Potency was “inactive and inconclusive: 31.6 µM [inhibitor, single point]”. For `COc1ccc(-n2c(COc3cccc4ccccc34)nnc2SCC(=O)NCc2ccco2)cc1`, the Potency was inconclusive: 14.1 µM [inhibitor, partial curve]. For `COC(=O)c1sc(NC(=S)NC(=O)c2cccc(Br)c2)nc1C`, the Potency was “inactive”. In the case of `COC(=O)Cc1[nH]nc2c1C(c1c[nH]c3ccccc13)C(C#N)=C(N)O2` (stereo unspecified), the Potency was “inactive”. With `Cc1ccc(Sc2ccc(C(=O)N3CCOCC3)cc2[N+](=O)[O-])cc1` the Potency was “inactive”. For `O=C(CCl)Nc1ccc(N2CCCCCC2)cc1`, the Potency was inconclusive: 12.6 µM [inhibitor, partial curve]. For `CN(C)C(=S)NC(=S)Nc1ccc2ccccc2c1`, the Potency was inconclusive: 35.5 µM [inhibitor, partial curve, poor fit]. For `O=C(CN(CC1CCCO1)C(=O)CNS(=O)(=O)c1ccc(F)cc1)NC1CCCCC1` (stereo unspecified), the Potency was inconclusive: 5.62 µM [inhibitor, single point]. For `Cc1c(Cl)cccc1NC(=S)NCc1ccc2c(c1)OCO2`, the Potency was inconclusive: 22.4 µM [inhibitor, single point]. In the case of `COc1cc(OC)cc(C(=O)N[C@H](C(=O)Nc2nc(-c3ccc(OC)c(OC)c3)cs2)C(C)C)c1`, the Potency was inconclusive: 7.94 µM [inhibitor, partial curve]. In the case of `CCCCCc1nc2c(=O)[nH]c3ccccc3c2o1`, the Potency was “inactive”. For `CCN(CCCNC(=O)c1[nH]c(C)c(C(C)=O)c1C)c1ccccc1`, the Potency was inconclusive: 6.31 µM [inhibitor, full curve, poor fit]. In the case of `O=C1C(Cc2ccccc2)Nc2ncnc(N3CCN(c4ccccc4)CC3)c2N1Cc1ccc(Br)cc1` (stereo unspecified), the Potency was inconclusive: 10 µM [inhibitor, partial curve]. For `O=S(=O)(c1ccccc1OC(F)(F)F)N1CCN(c2ccnc3cc(Cl)ccc23)CC1`, the Potency was inconclusive: 14.1 µM [inhibitor, single point]. With `O=C(/C=C/c1ccc(O)cc1)c1ccc(NC2=C(N3CCCCC3)C(=O)c3ccccc3C2=O)cc1` the Potency was active: 10 µM. With `CCOC(=O)c1c(C)c(C(=O)OCC)n(C)c1C` the Potency was inconclusive: 35.5 µM [inhibitor, single point]. For `COc1ccc(S(=O)(=O)N2CCC(c3cc(-c4cccc5ccccc45)n[nH]3)CC2)cc1`, the Potency was inconclusive: 25.1 µM [inhibitor, single point]. In the case of `CCCCc1nc2ccccc2c(NC(=O)CN2CCCC2)c1CCC`, the Potency was inconclusive: 10 µM [inhibitor, single point]. For `CCCOc1ccc(S(=O)(=O)n2cc(F)c(=O)[nH]c2=O)cc1`, the Potency was “inactive”. For `Cn1c(=O)n(C)c2cc([N+](=O)[O-])c(N3CCN(CCO)CC3)cc21`, the Potency was “inactive”. For `COc1cc(OC)c2c(C)cc(=O)oc2c1C(CCN1CCOCC1)c1ccc(N(C)C)cc1` (stereo unspecified), the Potency was inconclusive: 12.6 µM [inhibitor, single point]. For `CCN(CC)S(=O)(=O)c1cccc(NC(=O)CCNC(=O)c2ccc([N+](=O)[O-])cc2)c1`, the Potency was inconclusive: 22.4 µM [inhibitor, single point]. For `CCCC1CCc2c(sc(NC(=O)OCC)c2C#N)C1` (stereo unspecified), the Potency was “inactive”. In the case of `O=C(Nc1ccc(OC(F)F)c(Cl)c1)C(c1ccccc1)c1ccccc1`, the Potency was inconclusive: 25.1 µM [inhibitor, single point]. With `COc1ccccc1-c1cn[nH]c1-c1ccc(OCc2ccc(F)cc2)cc1O` the Potency was inconclusive: 31.6 µM [inhibitor, single point]. For `COc1ccc(N(CC(=O)N/N=C/c2ccccc2F)S(=O)(=O)c2ccccc2)cc1`, the Potency was inconclusive: 4.47 µM [inhibitor, single point]. With `Nc1ccc(-c2ccc(N)c([N+](=O)[O-])c2)cc1[N+](=O)[O-]` the Potency was inconclusive: 3.16 µM [inhibitor, full curve, poor fit]. In the case of `CC(C)CCOc1cccc(OCC(=O)Nc2ccncc2)c1`, the Potency was inconclusive: 14.1 µM [inhibitor, single point]. With `CCN1C(=O)[C@H]2[C@@H](c3ccc(C)cc3)N3C(=O)N(c4cccc(Br)c4)C(=O)[C@@]3(Cc3ccccc3)[C@H]2C1=O` the Potency was inconclusive: 8.91 µM [inhibitor, partial curve]. For `O=C(Nc1cccc(-n2cccn2)c1)C1CCCN(Cc2cc3ccccc3[nH]2)C1` (stereo unspecified), the Potency was inconclusive: 22.4 µM [inhibitor, single point]. With `CS(=O)(=O)c1ccccc1C(=O)Nc1ccccc1Cc1ccccc1` the Potency was inconclusive: 5.01 µM [inhibitor, single point]. For `O=C(CSc1nc(Cc2ccccc2)nc2ccccc12)c1ccc2c(c1)OCCO2`, the Potency was inconclusive: 10 µM [inhibitor, partial curve]. With `CCc1c(C)sc(NC(=S)Nc2cccnc2)c1C(=O)OC` the Potency was inconclusive: 1.78 µM [inhibitor, partial curve]. For `CN(C)c1ccc(CN(C(=O)/C=C/c2ccccc2Cl)C2CCS(=O)(=O)C2)cc1` (stereo unspecified), the Potency was inconclusive: 31.6 µM [inhibitor, single point]. With `COC(=O)c1cc(NC(=O)Cc2coc3cc(OC)ccc23)cc(C(=O)OC)c1` the Potency was inconclusive: 3.55 µM [inhibitor, partial curve]. In the case of `O=C(Nc1ccc(C(F)(F)F)cc1)c1cccc(-n2cnnn2)c1`, the Potency was inconclusive: 25.1 µM [inhibitor, single point]. In the case of `O=C1Nc2ccccc2SC1c1ccccc1` (stereo unspecified), the Potency was “inactive”. With `Fc1ccccc1OCCSc1nnnn1-c1ccccc1` the Potency was “inactive”. With `CCOC(=O)c1cccc(NC(=O)CCOc2ccccc2)c1` the Potency was inconclusive: 7.08 µM [inhibitor, partial curve]. For `CCCC(=O)OC/C(O)=C(\C#N)c1nc2ccccc2[nH]1`, the Potency was “inactive”. In the case of `O=c1[nH]cc(S(=O)(=O)N2CCCc3ccccc32)c(=O)[nH]1`, the Potency was “inactive”. For `O=C1CC(c2ccc(OCCCCCOc3ccc(C4CC(=O)NC4=O)cc3)cc2)C(=O)N1` (stereo unspecified), the Potency was inconclusive: 22.4 µM [inhibitor, single point]. With `CSCCC(=O)N1CCC(n2nccc2NC(=O)CCCc2ccccc2)CC1` the Potency was “inactive”. For `CC(C)n1ncc2c(C(=O)O)cc(C3CC3)nc21`, the Potency was “inactive”. With `CN1/C(=C\C=O)C(C)(C)c2ccccc21` the Potency was “inactive”. For `Nc1cc(N)nc(SCCOc2ccccc2F)n1`, the Potency was inconclusive: 8.91 µM [inhibitor, partial curve]. In the case of `N#CC(C(=O)C12CC3CC(CC(C3)C1)C2)c1nc2ccccc2[nH]1` (stereo unspecified), the Potency was inconclusive: 12.6 µM [inhibitor, single point]. With `NC(=O)CCn1c2ccccc2c2ccccc21` the Potency was inconclusive: 28.2 µM [inhibitor, single point]. In the case of `O=C1c2ccccc2C(=O)C1C(=O)C1CC1`, the Potency was “inactive”. With `CC1CCC2(CC1)NC(=O)N(CC(=O)N1CCN(C(=O)c3cccs3)CC1)C2=O` (stereo unspecified) the Potency was “inactive”. In the case of `Cc1csc(SCC(=O)Nc2sccc2C#N)n1`, the Potency was “inactive”. In the case of `CC(C)(C)NC(=O)CSc1nnc(-c2ccncc2)n1Cc1ccccc1`, the Potency was “inactive”. With `Cc1ccccc1NC(=O)/C=C/c1ccc([N+](=O)[O-])s1` the Potency was active: 10 µM. With `CCC(C)[C@H]1CN=C(N)N1CCc1cccc2ccccc12` (stereo partly specified) the Potency was “inactive”. For `COc1cccc(/C=C(/C(=O)OCC(=O)NC2CCCCCCC2)c2ccccc2)c1`, the Potency was active: 11.2 µM.
